Reference: PubChem BioAssay AID652104 (National Center for Advancing Translational Sciences (NCATS), 2013)
The campaign covered roughly 410,000 compounds. About 7,200 (1.8%) were called active. The shares of active, inactive and inconclusive entries below differ from those in the screen. The call rests on the fitted dose curve; in most records, active means well fitted activation curve with a large enough effect; inconclusive means small, poorly fitted or top-dose-only effect, or another doubt; inactive means no such curve, though single readings can be large or run the other way. No potency is given beside an inconclusive call; the fits are too rough.

assay: qHTS of TDP-43 Inhibitors; settings: TDP-43 expressing yeast growth rescue, BacTiter-Glo, 24 h; growth rescue (activation): at 46.1 µM (top of the series) unless noted; further: nearly all actives have a fitted effect of over 50% in size; on growth rescue (activation): % of control where 0% means no effect
Method in brief: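 Yeast expressing TDP-43 (pregrown in raffinose, seeded at OD600=0.02 in galactose medium) exposed to compounds 24 hr at 30 deg C. Growth read by BacTiter-Glo luminescence; rescue of toxicity appears as increased signal.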
Potency means the concentration at half of the fitted maximal effect; tags describe the fitted curve by direction and shape.

Compound | Potency | growth rescue (activation)
CNC(=O)c1ccsc1NC(=O)c1sc2ccccc2c1Cl | inactive | –
CC1CCC/C(=C\Nc2ccccc2C(=O)O)C1=O (centres undefined) | inactive | –
CCc1ccccc1NC(=O)COc1ccc2c(c1)OCO2 | inconclusive [activator, partial curve, poor fit] | –
Cc1cccn2c(Nc3ccc4c(c3)OCCO4)c(-c3ccc(Br)o3)nc12 | inconclusive [activator, single point] | –
CCC(C(=O)OC)n1nnc2sc(-c3ccccc3)cc2c1=O (centres undefined) | inconclusive [activator, single point] | –
Cc1ccc(-c2ccc(C(=O)O)o2)cc1Cl | inconclusive [activator, single point] | –
COc1ccc2c(c1)c(=O)c(C(=O)c1ccc(C)cc1)cn2Cc1ccccc1F | inconclusive [activator, partial curve] | –
O=S(=O)(Nc1cccc(-c2ccc(N3CCOCC3)nn2)c1)c1cc(C(F)(F)F)ccc1Cl | inconclusive [activator, partial curve] | –
COc1ccc(OC)c(-c2noc(N3CCN(c4cc(Cl)ccc4C)CC3)n2)c1 | inconclusive [activator, single point] | –
Cc1ccc(C)c(NC(=O)CSc2nnc(C)n3c2cc2occc23)c1 | inconclusive [activator, full curve, poor fit] | –
O=C1CCCN1CCCNc1ncnc2c1cnn2-c1ccc(Cl)cc1 | inconclusive [activator, partial curve] | –
Cc1nnc(SCC(=O)Nc2nccs2)s1 | inactive | –
CCc1nc2cc(C)nn2c2nc3ccccc3n12 | inconclusive [activator, partial curve] | –
CCN1CCCC1CNC(=O)c1ccc(N2CCCC2=O)cc1 (centres undefined) | inactive | –
COc1cc(NC(=O)c2cccc3c(-c4cccnc4)coc23)cc(OC)c1OC | inactive | –
C=CCn1c(COc2cccc(C)c2C)nnc1SCC(=O)N1CCN(c2ccccc2)CC1 | inconclusive [activator, single point] | –
O=C(c1cccs1)N1CCN(c2ccccc2)CC1 | inconclusive [activator, partial curve] | –
CNS(=O)(=O)c1cn(CC(=O)Nc2cccc(C(F)(F)F)c2)cc1S(=O)(=O)NC | inactive | –
COc1cccc(-c2ncc3ccccc3c2COC(=O)c2ccc(F)cc2)c1 | inconclusive [activator, full curve, poor fit] | –
CCCCN(CC)CCNc1ncnc2onc(-c3ccc(Cl)cc3)c12 | inactive | –
CCOc1ccc(N(CC(=O)N2CCCC2)S(=O)(=O)c2ccc(Cl)cc2)cc1 | inactive | –
Cc1ccc(N2C(=O)CS(=O)(=O)C23C(=O)N(Cc2ccccc2F)c2ccccc23)cc1Cl (centres undefined) | inactive | –

Compound | Potency | growth rescue (activation)
COc1ccc(-c2sc3ccccc3c2-c2ccc(OCCN3CCCCC3)cc2)cc1 | inconclusive [activator, single point] | –
Cc1cc(C(=O)COC(=O)Cc2ccc(Br)cc2)c(C)n1C | inconclusive [activator, partial curve] | –
CCCCC(=O)Nc1ccccc1N1CCN(c2ccc(F)cc2)CC1 | active: 22.4 µM | –
COCCCNc1ccn2nc(-c3cccc(Cl)c3)cc2n1 | inconclusive [activator, partial curve] | –
CCc1ccc(C2=NN(c3ccc(S(N)(=O)=O)cc3)C(c3ccc(F)cc3)C2)cc1 (centres undefined) | active: 14.1 µM | –
O=C(c1cccs1)N1CCN(c2ccc(Cl)cc2)CC1 | inconclusive [activator, single point] | –
O=[N+]([O-])/C=C/c1ccc2c(ccn2Cc2ccccc2)c1 | – | inconclusive: -88% [activator]
CC(C)c1ccc(C(=O)NN2C(=O)C3CCCCC3C2=O)cc1 (centres undefined) | inconclusive [activator, partial curve, poor fit] | –
CCOC(=O)c1nc(Nc2ccc(Cl)cc2)c2c(C)noc2n1 | inconclusive [activator, partial curve, poor fit] | –
Fc1ccccc1CNC(=S)Nc1cccc(C(F)(F)F)c1 | inconclusive [activator, partial curve, poor fit] | –
N/C(=N\OC(=O)c1cccnc1)c1ccccc1Cl | inconclusive [activator, single point] | –
COc1ccc(OC)c(C2=CC(=O)C[C@H](c3ccc4c(c3)OCO4)C2)c1 | active: 25.1 µM | –
Cc1nccn1CC(=O)c1ccc(O)c(O)c1 | inconclusive [activator, partial curve] | –
O=C(CN1C(=O)C(c2ccc(F)cc2)=NC12CCCC2)Nc1ccc(F)cc1 | inconclusive [activator, partial curve] | –
COc1ccccc1/C=C/C(=O)OCCN1C(=O)c2ccccc2C1=O | inconclusive [activator, partial curve] | –
CCC1(COC(=O)Nc2cccc(Cl)c2)COC1 | inconclusive [activator, single point] | –
COc1ccc(-c2cc3nc(C)c(CCC(=O)Nc4ccc(F)cc4F)c(C)n3n2)c(OC)c1 | inconclusive [activator, single point] | –
Cc1ccc(NC(=O)c2ccc(COc3ccccc3[N+](=O)[O-])o2)nc1 | inconclusive [activator, single point] | –
CC(Oc1ccccc1)C(=O)Nc1nnc(S(=O)(=O)N2CCCCCC2)s1 (centres undefined) | active: 20 µM | –
COc1ccc(C2=NN3C(C2)c2ccccc2OC3c2cccs2)cc1 (centres undefined) | inconclusive [activator, single point] | –
CC(C)C1C(=O)N(Cc2cn(Cc3ccco3)nn2)CCS(=O)(=O)N1Cc1ccc(-c2ccc(Cl)cc2)cc1 (centres undefined) | inconclusive [activator, partial curve] | –
COc1cc(/C=C/C(=O)OCC(=O)NC2CCCCCCC2)ccc1O | inconclusive [activator, single point] | –
